Data reported in the supplement of paper PMC4967469.

Tests used:
Assay in all cases: Viability of human cancer cell lines after 72 h of drug (GDSC screen)
Docetaxel = compound: CC(=O)O[C@@]12CO[C@@H]1C[C@H](O)[C@@]1(C)C(=O)[C@H](O)C3=C(C)[C@@H](OC(=O)[C@H](O)[C@@H](NC(=O)OC(C)(C)C)c4ccccc4)C[C@@](O)([C@@H](OC(=O)c4ccccc4)[C@H]21)C3(C)C [Docetaxel]; details: top dose 0.0125 µM
Protocol: (§1)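 Human cancer cell lines in 384-well plates, medium with 10% serum, drug for 72 h over a 256-fold dose range (nine 2-fold or five 4-fold steps up to the top dose). Adherent lines were fixed and stained with the nucleic acid dye Syto60, suspension lines read with resazurin; signal relative to control wells, capped at 0 and 100%. One two-parameter sigmoid per drug and line, fitted in a mixed model over all curves with the slope shared within a line.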

YM155 = compound: COCC[n+]1c2c(n(Cc3cnccn3)c1C)C(=O)c1ccccc1C2=O [YM155]; details: top dose 5.12 µM
Protocol: as §1

AMG-706 = compound: CC1(C)CNc2cc(NC(=O)c3cccnc3NCc3ccncc3)ccc21 [AMG-706]; details: top dose 2 µM; top dose inferred
Protocol: as §1

JNJ-26854165 = compound: c1ccc2c(CCNc3ccc(Nc4ccncc4)cc3)c[nH]c2c1 [JNJ-26854165]; details: top dose 10 µM
Protocol: as §1

CGP-60474 = compound: OCCCNc1cc(-c2ccnc(Nc3cccc(Cl)c3)n2)ccn1 [CGP-60474]; details: top dose 0.256 µM; top dose inferred
Protocol: as §1

FTI-277 = compound: COC(=O)[C@H](CCSC)NC(=O)c1ccc(NC[C@@H](N)CS)cc1-c1ccccc1 [FTI-277]; details: top dose 1.024 µM; top dose inferred
Protocol: as §1

JNK Inhibitor VIII = compound: CCOc1nc(NC(=O)Cc2cc(OC)ccc2OC)cc(N)c1C#N [JNK Inhibitor VIII]; details: top dose 10 µM; top dose inferred
Protocol: as §1

Belinostat = compound: O=C(/C=C/c1cccc(S(=O)(=O)Nc2ccccc2)c1)NO [Belinostat]; details: top dose 20 µM; top dose inferred
Protocol: as §1

Cyclopamine = compound: CC1=C2C[C@H]3[C@@H](CC=C4C[C@@H](O)CC[C@@]43C)[C@@H]2CC[C@]12O[C@@H]1C[C@H](C)CN[C@H]1[C@H]2C [Cyclopamine]; details: top dose 16 µM; top dose inferred
Protocol: as §1

OSI-906 = compound: C[C@]1(O)C[C@@H](c2nc(-c3ccc4ccc(-c5ccccc5)nc4c3)c3c(N)nccn32)C1 [OSI-906]; details: top dose 2.56 µM; top dose inferred
Protocol: as §1

SB-715992 = compound: Cc1ccc(C(=O)N(CCCN)[C@@H](c2nc3cc(Cl)ccc3c(=O)n2Cc2ccccc2)C(C)C)cc1 [SB-715992]; details: top dose 0.128 µM; top dose inferred
Protocol: as §1

JQ1 = compound: Cc1sc2c(c1C)C(c1ccc(Cl)cc1)=N[C@@H](CC(=O)OC(C)(C)C)c1nnc(C)n1-2 [JQ1]
Protocol: as §1

NVP-TAE684 = compound: COc1cc(N2CCC(N3CCN(C)CC3)CC2)ccc1Nc1ncc(Cl)c(Nc2ccccc2S(=O)(=O)C(C)C)n1 [NVP-TAE684]; details: top dose 2 µM
Protocol: as §1

NSC-207895 = compound: CN1CCN(c2ccc([N+](=O)[O-])c3no[n+]([O-])c23)CC1 [NSC-207895]; details: top dose 20 µM; top dose inferred
Protocol: as §1

[1] = top dose 1 µM, screen: GDSC drug entry 1218, top dose inferred
[2] = top dose 2.56 µM, screen: GDSC drug entry 163

Cell Line	AUC (Docetaxel)	IC50 (Docetaxel) [nM]	AUC (YM155)	IC50 (YM155) [nM]	AUC (AMG-706)	IC50 (AMG-706) [nM]	AUC (JNJ-26854165)	IC50 (JNJ-26854165) [nM]	AUC (CGP-60474)	IC50 (CGP-60474) [nM]	AUC (FTI-277)	IC50 (FTI-277) [nM]	AUC (JNK Inhibitor VIII)	IC50 (JNK Inhibitor VIII) [nM]	AUC (Belinostat)	IC50 (Belinostat) [nM]	AUC (Cyclopamine)	IC50 (Cyclopamine) [nM]	AUC (OSI-906)	IC50 (OSI-906) [nM]	AUC (SB-715992)	IC50 (SB-715992) [nM]	AUC (JQ1; [1])	IC50 (JQ1; [1]) [nM]	AUC (JQ1; [2])	IC50 (JQ1; [2]) [nM]	AUC (NVP-TAE684)	IC50 (NVP-TAE684) [nM]	AUC (NSC-207895)	IC50 (NSC-207895) [nM]
DEL (lymphoid neoplasm, suspension)	0.977	> 12.5	0.016	< 20	0.991	> 2000	0.994	> 10000	0.571	24	0.967	> 1020	0.994	> 10000	0.266	322	0.846	8200	0.994	> 2560	0.744	33	0.939	> 1000	0.82	1080	0.062	< 7.81	0.974	> 20000
DSH1 (bladder, adherent)	0.878	11.7	0.075	< 20	0.989	> 2000	0.72	2540	0.855	191	0.978	> 1020	0.953	> 10000	0.309	375	0.989	> 16000	0.989	> 2560	0.983	> 128	0.971	> 1000	0.629	357	0.948	> 2000	0.94	> 20000
EB2 (Burkitt lymphoma, suspension)	0.99	> 12.5	0.023	< 20	0.989	> 2000	0.978	> 10000	0.965	> 256	0.985	> 1020	0.99	> 10000	0.308	384	0.956	> 16000	0.988	> 2560	0.558	11.3	0.985	> 1000	0.854	1730	0.989	> 2000	0.878	17000
EC-GI-10 (oesophagus, adherent)	0.511	0.837	0.918	> 5120	0.968	> 2000	0.923	> 10000	0.948	> 256	0.987	> 1020	0.974	> 10000	0.821	11400	0.989	> 16000	0.989	> 2560	0.986	> 128	0.988	> 1000	0.989	> 2560	0.989	> 2000	0.987	> 20000
EKVX (lung adenocarcinoma, adherent)	0.776	> 12.5	0.103	< 20	0.947	> 2000	0.901	> 10000	0.94	> 256	0.957	> 1020	0.965	> 10000	0.78	> 20000	0.955	> 16000	0.737	1710	0.955	> 128	0.947	> 1000	0.841	> 2560	0.897	> 2000	0.97	> 20000
ES1 (Ewing sarcoma, adherent)	0.675	2.38	0.031	< 20	0.961	> 2000	0.748	3170	0.851	191	0.986	> 1020	0.955	> 10000	0.283	307	0.958	> 16000	0.459	124	0.734	36.8	0.984	> 1000	0.946	> 2560	0.85	1490	0.919	> 20000
ES6 (Ewing sarcoma, adherent)	0.836	11.2	0.128	< 20	0.933	> 2000	0.907	> 10000	0.376	6.69	0.942	> 1020	0.967	> 10000	0.516	1390	0.926	> 16000	0.704	696	0.966	> 128	0.967	> 1000	0.839	2380	0.717	603	0.902	> 20000
EoL-1-cell (haematopoietic neoplasm, suspension)	0.798	5.16	0.024	< 20	0.029	< 7.81	0.605	1170	0.855	167	0.981	> 1020	0.986	> 10000	0.21	200	0.898	> 16000	0.933	> 2560	0.784	47.7	0.979	> 1000	0.662	424	0.969	> 2000	0.777	7070

Lines with a small IC50 respond at low doses; a fit beyond the top or the lowest dose is shown as a bound at that dose. The AUC spans the tested range (256-fold, ending at the top dose) of the same fit: 1 means no effect, lower means more sensitive. For part of these data: Any top dose called inferred was derived from the fitted curves, not read from the paper. For part of these data: An entry number marks a drug with two screens in the source, which often give different values.
